Data from a collection of fitness landscapes (doi:10.1016/j.celrep.2020.107928).
In all, about 81,000 sequences were measured (“one-hybrid fitness for binding NBS DNA”: median about -0.1, highest 2% from about 0.36 on). The list shows a part of the results.

B1: Caulobacter ParB omega fusion; a variant is named by its letters at X, in order, B8GW30 (parent)
chain: MESVVVGEPGMSEGRRGLGRGLSALLGEVDAAPAQAPGEQLGGSREAPIEILQRNPDQPRRTFREEDLEDLSNSIREKGVLQPILVRPSPDTAGEYQIVAGERAWRAAQRAGLKTVPIMVRELDDLAVLEIGIIENVQRADLNVLEEALSYKVLMEKFERTQENIAQTIGKSXSHVANXMRLLXLPDEVQSYLVSGELTAXHARAIAAAADPVALAKQIIEGGLSVRETEALARKAPNLSAGKSKGGRPPRVKDTDTQALESDLSSVLGLDVSIDHRGSTGTLTITYATLEQLDDLCNRLTRGI

Variants of: B1
Assay: one-hybrid fitness for binding NBS DNA (the Noc-binding site; scaled: cognate 1, non-cognate 0); higher = stronger binding
Details: with NBS DNA site
Method in brief: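 Values were rescaled so that cognate is 1 and non-cognate is 0. Each is a fitness, the log change in a variant's read ratio to wild type from Illumina reads of plasmids before and after selection, with three replicate libraries pooled and variants under 10 reads dropped. Selection of the Caulobacter ParB libraries, four specificity codons randomised, used E. coli USO with a HIS3 reporter, site 19 bp from the promoter, on M9-minus-histidine with 0.1 mM IPTG and 5 mM 3-AT for 48 hours at 37°C.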

Variant | one-hybrid fitness for binding NBS DNA
YEGP | ≤ 0.2
GPLF | ≤ 0.2
PDTC | ≤ 0.2
RMNL | ≤ 0.2
CCMW | ≤ 0.2
LRVA | ≤ 0.2
NAAY | ≤ 0.2
RAGF | ≤ 0.2
SAYI | ≤ 0.2
RFVL | ≤ 0.2
GRLL | ≤ 0.2
HRIG | ≤ 0.2
VQCF | ≤ 0.2
YLGL | ≤ 0.2
KSMR | ≤ 0.2
RRIQ | 0.235
PHMT | ≤ 0.2
LYHD | ≤ 0.2
FPHG | ≤ 0.2
DLEP | ≤ 0.2
SSLY | ≤ 0.2
KCGC | ≤ 0.2
SQSS | ≤ 0.2
RAHT | 0.427
KMCT | ≤ 0.2

Variant | one-hybrid fitness for binding NBS DNA
AFDL | ≤ 0.2
GMYT | ≤ 0.2
LDAP | ≤ 0.2
HYAQ | ≤ 0.2
TRIG | ≤ 0.2
VTEW | ≤ 0.2
HRHR | ≤ 0.2
TPAM | ≤ 0.2
IPLS | ≤ 0.2
HSCH | ≤ 0.2
HEKA | ≤ 0.2
ERSC | ≤ 0.2
KTTN | ≤ 0.2
KTNF | ≤ 0.2
FCYE | ≤ 0.2
DTNH | ≤ 0.2
FHIG | ≤ 0.2
TAKT | ≤ 0.2
FSGT | ≤ 0.2
SQVT | ≤ 0.2
LSYL | ≤ 0.2
PMKR | ≤ 0.2
HWER | ≤ 0.2
ISNS | ≤ 0.2
QPTH | ≤ 0.2

Variant | one-hybrid fitness for binding NBS DNA
VNRE | ≤ 0.2
LPRS | ≤ 0.2
LTSY | ≤ 0.2
STCC | ≤ 0.2
QWPM | ≤ 0.2
QCYD | ≤ 0.2
RSKK | ≤ 0.2
FHRW | ≤ 0.2
IPCS | ≤ 0.2
QLYV | ≤ 0.2
LMVC | ≤ 0.2
SCYF | ≤ 0.2
WERT | ≤ 0.2
TVYL | ≤ 0.2
YPGY | ≤ 0.2
VHTR | ≤ 0.2
QHAE | ≤ 0.2
IRSD | ≤ 0.2
TPGP | ≤ 0.2
HCAN | ≤ 0.2
LKSP | ≤ 0.2
YPPK | ≤ 0.2
TTHG | ≤ 0.2
DMKI | ≤ 0.2
VINA | ≤ 0.2

Variant | one-hybrid fitness for binding NBS DNA
HTVA | ≤ 0.2
HNTP | ≤ 0.2
WAST | ≤ 0.2
TQYQ | ≤ 0.2
NQRL | ≤ 0.2
RIGT | 0.403
LPRA | ≤ 0.2
DLRH | ≤ 0.2
YRAY | ≤ 0.2
ATDA | ≤ 0.2
PPDD | ≤ 0.2
SDTV | ≤ 0.2
YLNC | ≤ 0.2
DFAT | ≤ 0.2
TTHM | ≤ 0.2
YVNG | ≤ 0.2
WFQR | ≤ 0.2
GDPY | ≤ 0.2
WGPT | ≤ 0.2
MEAP | ≤ 0.2
VAEF | ≤ 0.2
WTAW | ≤ 0.2
QPRH | ≤ 0.2
LGIR | ≤ 0.2
VVHS | ≤ 0.2

Variant | one-hybrid fitness for binding NBS DNA
PVHC | ≤ 0.2
PKNR | ≤ 0.2
DNMG | ≤ 0.2
QPMR | ≤ 0.2
AVPN | ≤ 0.2
WEVL | ≤ 0.2
MTYF | ≤ 0.2
TGPV | ≤ 0.2
RWCY | ≤ 0.2
RQYF | ≤ 0.2
TGQD | ≤ 0.2
IRNL | ≤ 0.2
FAAC | ≤ 0.2
PANL | ≤ 0.2
LCAG | ≤ 0.2
RFCT | ≤ 0.2
YTHR | ≤ 0.2
LEPT | ≤ 0.2
NTKT | ≤ 0.2
CYQG | ≤ 0.2
NKSL | ≤ 0.2
KYNC | ≤ 0.2
QCPR | 0.37
GARC | ≤ 0.2
THCA | ≤ 0.2

Variant | one-hybrid fitness for binding NBS DNA
AYWS | ≤ 0.2
FLGC | ≤ 0.2
CERR | ≤ 0.2
MCKS | ≤ 0.2
PVNL | ≤ 0.2
GERS | ≤ 0.2
MKRT | ≤ 0.2
HNLR | ≤ 0.2
DMMV | ≤ 0.2
HARL | ≤ 0.2
NGQF | ≤ 0.2
QHQL | ≤ 0.2
PRDY | ≤ 0.2
PGKT | ≤ 0.2
RHGF | ≤ 0.2
PNKY | ≤ 0.2
GPPS | ≤ 0.2
RVDG | ≤ 0.2
ATST | ≤ 0.2
QEMW | ≤ 0.2
KVED | ≤ 0.2
HLIP | ≤ 0.2
NKWC | ≤ 0.2
IPNS | ≤ 0.2
QWKV | ≤ 0.2

Variant | one-hybrid fitness for binding NBS DNA
IKCR | ≤ 0.2
MVGS | ≤ 0.2
AADT | ≤ 0.2
KGPR | ≤ 0.2
VHLG | ≤ 0.2
YHPG | ≤ 0.2
ITRF | ≤ 0.2
ENLG | ≤ 0.2
WDGT | ≤ 0.2
EALA | ≤ 0.2
LIQD | ≤ 0.2
DVVC | ≤ 0.2
HVYT | ≤ 0.2
YPPM | ≤ 0.2
QAIA | ≤ 0.2
QGST | ≤ 0.2
LAWT | ≤ 0.2
CVAS | ≤ 0.2
VAHT | ≤ 0.2
VHWT | ≤ 0.2
NTQF | ≤ 0.2
MYLS | ≤ 0.2
MVGG | ≤ 0.2
WPLC | ≤ 0.2
QVGG | ≤ 0.2

Variant | one-hybrid fitness for binding NBS DNA
THSS | ≤ 0.2
LNLC | ≤ 0.2
YQQT | ≤ 0.2
FVGC | ≤ 0.2
LIKY | ≤ 0.2
TDKD | ≤ 0.2
FCLG | ≤ 0.2
RPSY | ≤ 0.2
QSAQ | ≤ 0.2
MSVS | ≤ 0.2
RWAK | ≤ 0.2
RQPE | ≤ 0.2
QVRW | ≤ 0.2
NWRI | ≤ 0.2
DILG | ≤ 0.2
QALF | ≤ 0.2
HYYK | ≤ 0.2
MVRV | ≤ 0.2
YLLV | ≤ 0.2
SEAN | ≤ 0.2
